Measurements as given in the supplement of paper PMC4996465.
Counter-ions that a name gives are not always drawn. Viability of KB3-1 and Nalm-6 cells after 48 h of drug alone (CellTiter-Glo), 11 doses over about 4.5 log units. % of DMSO wells, lower = more cell loss; AC50 from the fitted curve, lower = more potent. No active / inactive call. Nalm-6 was screened in two runs. AC50 is listed only for well-fitted inhibitory curves. KB3-1 is a HeLa-derived carcinoma line, Nalm-6 a B-cell precursor leukaemia line.

Legend:
KB3-1 = assay: viability (% of DMSO control); higher = more viable cells
Procedure: (§1)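 Eleven-dose screen of the NCATS MIPE 3 library on cells without co-treatment; CellTiter-Glo after 48 h, as % of DMSO wells.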

Nalm-6 [1] = assay: as above
Procedure: as §1

Nalm-6 [2] = assay: log AC50 of viability decrease (48 h) (log10 M); higher = less potent
Procedure: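 Eleven-dose screen of the NCATS MIPE 3 library on cells without co-treatment; CellTiter-Glo after 48 h. AC50 from the curve fit; only inhibitory curves of the better fit classes are listed.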

| Compound | viability (KB3-1; 0.00078 µM) | viability (KB3-1; 0.00234 µM) | viability (KB3-1; 0.00702 µM) | viability (KB3-1; 0.0211 µM) | viability (KB3-1; 0.0632 µM) | viability (KB3-1; 0.19 µM) | viability (KB3-1; 0.569 µM) | viability (KB3-1; 1.71 µM) | viability (KB3-1; 5.12 µM) | viability (KB3-1; 15.4 µM) | viability (KB3-1; 46.1 µM) | viability (Nalm-6 [1]; run: 1, 0.00078 µM) | viability (Nalm-6 [1]; run: 1, 0.00234 µM) | viability (Nalm-6 [1]; run: 1, 0.00702 µM) | viability (Nalm-6 [1]; run: 1, 0.0211 µM) | viability (Nalm-6 [1]; run: 1, 0.0632 µM) | viability (Nalm-6 [1]; run: 1, 0.19 µM) | viability (Nalm-6 [1]; run: 1, 0.569 µM) | viability (Nalm-6 [1]; run: 1, 1.71 µM) | viability (Nalm-6 [1]; run: 1, 5.12 µM) | viability (Nalm-6 [1]; run: 1, 15.4 µM) | viability (Nalm-6 [1]; run: 1, 46.1 µM) | viability (Nalm-6 [1]; run: 2, 0.00078 µM) | viability (Nalm-6 [1]; run: 2, 0.00234 µM) | viability (Nalm-6 [1]; run: 2, 0.00702 µM) | viability (Nalm-6 [1]; run: 2, 0.0211 µM) | viability (Nalm-6 [1]; run: 2, 0.0632 µM) | viability (Nalm-6 [1]; run: 2, 0.19 µM) | viability (Nalm-6 [1]; run: 2, 0.569 µM) | viability (Nalm-6 [1]; run: 2, 1.71 µM) | viability (Nalm-6 [1]; run: 2, 5.12 µM) | viability (Nalm-6 [1]; run: 2, 15.4 µM) | viability (Nalm-6 [1]; run: 2, 46.1 µM) | log AC50 of viability decrease (Nalm-6 [2]; run: 1) | log AC50 of viability decrease (Nalm-6 [2]; run: 2) |
| --- | --- | --- | --- | --- | --- | --- | --- | --- | --- | --- | --- | --- | --- | --- | --- | --- | --- | --- | --- | --- | --- | --- | --- | --- | --- | --- | --- | --- | --- | --- | --- | --- | --- | --- | --- |
| CC1(C)CNc2cc(NC(=O)c3cccnc3NCc3ccncc3)ccc21 [Motesanib] | 104% | 105% | 100% | 103% | 110% | 106% | 104% | 108% | 106% | 99.9% | 70% | 108% | 98.9% | 103% | 112% | 107% | 109% | 105% | 113% | 107% | 93.1% | 47.1% | 102% | 94.7% | 96.4% | 95.2% | 105% | 101% | 100% | 97.2% | 101% | 90.3% | 45.4% | -4.68 | – |
| CC1(C)CCC(=C(CN2CCN(CC2)C3=CC=C(C=C3)C(=O)NS(=O)(=O)C4=CC(=C(N[C@H](CCN5CCOCC5)CSC6=CC=CC=C6)C=C4)S(=O)(=O)C(F)(F)F)\C1)/C7=CC=C(Cl)C=C7 [Navitoclax] | 97.3% | 100% | 96.8% | 97.2% | 101% | 103% | 101% | 96.7% | 95% | 89% | 7.55% | 116% | 104% | 101% | 119% | 96.4% | 81.1% | 42.6% | 10.4% | 8.92% | 6.61% | 1.76% | 101% | 105% | 102% | 93.1% | 89.6% | 70.6% | 32.2% | 6.01% | 3.4% | 2.09% | 0.723% | -6.43 | -6.48 |
| NC(=O)c1c(OCc2c(F)cc(Br)cc2F)nsc1NC(=O)NCCCCN1CCCC1 [OSI-632] | 105% | 101% | 107% | 103% | 107% | 104% | 107% | 109% | 116% | 111% | 13.3% | 118% | 123% | 117% | 131% | 123% | 127% | 121% | 112% | 98.8% | 88.9% | 0.752% | 104% | 114% | 111% | 112% | 106% | 113% | 103% | 103% | 94.8% | 91.3% | 0.374% | -4.68 | -4.63 |
| FC1=C(C=C(C/C2=N/NC(=O)C3=C2C=CC=C3)C=C1)C(=O)N4CCN(CC4)C(=O)C5CC5 [Olaparib] | 108% | 105% | 112% | 110% | 109% | 110% | 109% | 111% | 102% | 104% | 81.4% | 107% | 109% | 116% | 111% | 115% | 112% | 110% | 107% | 102% | 95.9% | 35.8% | 97.8% | 101% | 105% | 105% | 103% | 96.7% | 99.1% | 93.2% | 90.8% | 56.4% | 28.8% | -4.63 | -4.83 |
| CN1CCN(c2cc(C(=O)Nc3ccc4c(c3)-c3c(c(C(N)=O)nn3-c3ccc(F)cc3)CC4)c(Cl)cn2)CC1 [PHA-408] | 101% | 101% | 99.9% | 100% | 95.4% | 101% | 101% | 95.7% | 96.4% | 90.5% | 3.29% | 109% | 127% | 119% | 118% | 112% | 124% | 118% | 106% | 110% | 109% | 0.792% | 112% | 110% | 111% | 110% | 114% | 113% | 110% | 109% | 105% | 100% | 0.17% | – | -4.58 |
| CCCCN1CCC(CNC(=O)c2c3n(c4ccccc24)CCCO3)CC1 [Piboserod hydrochloride] | 96.6% | 106% | 99.9% | 97.6% | 99.2% | 94% | 90.2% | 96.8% | 105% | 97.4% | 103% | 98.4% | 110% | 103% | 101% | 80.6% | 62.9% | 38.4% | 5.67% | 1.93% | -0.107% | -0.57% | 95.4% | 107% | 110% | 111% | 103% | 100% | 102% | 109% | 105% | 103% | 86.8% | -6.53 | – |
| CC(C)(C)COc1ccc(-n2cc(C(=O)O)cn2)cc1C#N [Piraxostat] | 109% | 109% | 107% | 106% | 110% | 112% | 109% | 109% | 108% | 105% | 101% | 124% | 124% | 123% | 124% | 130% | 121% | 119% | 122% | 120% | 110% | 100% | 112% | 102% | 111% | 109% | 107% | 108% | 101% | 104% | 91.9% | 62% | 6.52% | – | -4.73 |
